From paper PMC4336329 (PLoS ONE, 2015)
About 2,200 (0.71%) of roughly 310,000 compounds showed an effect of 50% or more. The effect is printed as a negative number. This is one part of the list.

Target: human ether-à-go-go-related gene (hERG) potassium channel (human, UniProt Q12809)
Assay: primary screen, population patch clamp on CHO cells stably expressing hERG

human ether-à-go-go-related gene (hERG) potassium channel, sequence (Q12809 whole entry, looked up): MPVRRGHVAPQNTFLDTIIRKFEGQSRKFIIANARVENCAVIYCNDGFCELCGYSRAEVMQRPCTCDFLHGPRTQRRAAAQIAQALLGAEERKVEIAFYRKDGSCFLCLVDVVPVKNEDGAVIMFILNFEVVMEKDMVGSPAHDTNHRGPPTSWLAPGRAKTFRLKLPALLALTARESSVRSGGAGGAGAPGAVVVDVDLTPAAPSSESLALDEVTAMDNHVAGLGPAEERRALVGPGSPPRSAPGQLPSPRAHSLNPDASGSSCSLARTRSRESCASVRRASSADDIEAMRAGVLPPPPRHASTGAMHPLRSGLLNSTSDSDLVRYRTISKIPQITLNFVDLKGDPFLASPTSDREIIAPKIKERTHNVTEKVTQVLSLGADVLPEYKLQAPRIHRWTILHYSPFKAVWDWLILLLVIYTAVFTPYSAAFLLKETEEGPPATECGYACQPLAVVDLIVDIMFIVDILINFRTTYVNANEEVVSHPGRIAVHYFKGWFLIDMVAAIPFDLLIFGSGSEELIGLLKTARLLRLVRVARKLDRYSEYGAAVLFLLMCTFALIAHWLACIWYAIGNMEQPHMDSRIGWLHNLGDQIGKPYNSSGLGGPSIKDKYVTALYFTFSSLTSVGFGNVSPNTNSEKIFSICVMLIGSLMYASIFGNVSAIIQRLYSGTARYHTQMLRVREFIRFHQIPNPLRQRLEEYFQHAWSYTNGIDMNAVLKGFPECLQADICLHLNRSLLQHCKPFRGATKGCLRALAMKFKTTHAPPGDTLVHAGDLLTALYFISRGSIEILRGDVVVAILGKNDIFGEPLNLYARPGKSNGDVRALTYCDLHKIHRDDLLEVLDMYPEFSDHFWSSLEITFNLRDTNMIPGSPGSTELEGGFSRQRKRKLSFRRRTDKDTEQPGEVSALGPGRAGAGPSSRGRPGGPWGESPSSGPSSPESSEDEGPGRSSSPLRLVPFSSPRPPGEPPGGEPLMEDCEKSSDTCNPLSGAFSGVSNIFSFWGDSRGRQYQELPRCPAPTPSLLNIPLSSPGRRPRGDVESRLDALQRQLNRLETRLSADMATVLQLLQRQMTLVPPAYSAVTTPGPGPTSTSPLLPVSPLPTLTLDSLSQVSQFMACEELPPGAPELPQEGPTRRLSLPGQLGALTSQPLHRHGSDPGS

Row | SMILES | hERG current change (%, negative = inhibition) at 1uM [%]
1 | Cc1ccc(OCC(=O)N(C)CC(=O)Nc2ccc(F)cc2)c([N+](=O)[O-])n1 | 0.489
2 | CC(O)[C@H](NC(=O)C1CCN(C(=O)[C@H](Cc2ccccc2)NC(=O)OC(C)(C)C)CC1)C(=O)O (stereo partly drawn) | 14.1
3 | Cc1cc(SCC(=O)Nc2ccccc2)n2ncc(-c3ccccc3)c2n1 | 6.56
4 | CCN1CCN(C(=O)c2ccccc2Nc2ccc(SC(F)F)cc2)CC1.Cl | -12.2
5 | COc1cccc(NC(=O)C2C(c3ccccc3)C2(Cl)Cl)c1 (stereo not drawn) | 7.35
6 | CC(=O)N=c1c(C#N)cc2c(=O)n3ccccc3nc2n1CCCOC(C)C | 8.03
7 | O=C1CN(C(=O)COc2cccc(F)c2)c2ccccc2N1 | -0.68
8 | Cc1ccc(S(=O)(=O)N(CC(=O)Nc2cccc(N(C)S(C)(=O)=O)c2)c2ccc(Cl)c(Cl)c2)cc1 | 12.6
9 | Cc1cccc(N2CCN(Cc3ccc4c(c3)OCO4)CC2)c1C | 9.52
10 | C=CCN(CCNP(=O)(OCC)OCC)CP(=O)(OCC)OCC | 9.69
11 | COc1ccc(CC(=O)N2CC3(C)CC2CC(C)(C)C3)cc1 (stereo not drawn) | 10.9
12 | CCCOc1ccc(C(=O)c2nc3c(n2O)CCCCC3)cc1 | 0.922
13 | CC(=O)C1=C(O)C(=O)N(c2ccc(O)cc2)C1c1ccccc1F (stereo not drawn) | 16.4
14 | Cc1ccccc1-c1nc(CS(=O)CC(=O)NCCN2CCN(Cc3ccccc3)CC2)c(C)o1 (stereo not drawn) | -13.4
15 | Cc1ccccc1N1CCN(C(=S)c2ccccc2)CC1 | 7.3
16 | O=C(CN1CCCC1)N/N=C/c1c(O)ccc2ccccc12 | 5.2
17 | O=S(=O)(O)c1cc2oc(-c3ccccc3)nc2c2ccccc12 | 19.7
18 | COc1ccc(CN2CCN(CCCc3ccccc3)C(CCO)C2)cc1OC (stereo not drawn) | -44.7
19 | CC1(C)CC(=O)C(C=Nc2ccc3c(c2)OCO3)=C(O)C1 | 5.35
20 | CCn1cc(C(=O)Nc2ncccc2O)c(=O)c2cc(F)c(N3CCN(C(=O)c4ccco4)CC3)cc21 | 14.6
21 | CC(=O)N1c2ccc(S(=O)(=O)NCCC(=O)N(C)C3CCCCC3)cc2CC1C (stereo not drawn) | 11.4

Row | SMILES | hERG current change (%, negative = inhibition) at 1uM [%]
22 | Cc1ccccc1NC(=O)CC1SC(=NC2CCCCC2)NC1=O (stereo not drawn) | 18.3
23 | CCOC(=O)NC(Nc1cc(C)on1)(C(F)(F)F)C(F)(F)F | 6.59
24 | Cc1ccc(CN2CCN(CC(=O)NC(C)c3ccc4c(c3)OCCO4)C2=O)cc1 (stereo not drawn) | 13
25 | N=c1c(C(=O)NCc2ccco2)cc2c(=O)n3ccccc3nc2n1C1CCCC1 | -82.2
26 | Cc1cccc(N2CC(O)(c3cccs3)[N+]3=C2CCCC3)c1.[Br-] (stereo not drawn) | 1.4
27 | CCOC(=O)C1CCCN(C(=O)c2cc(Nc3ccc(OC)c(OC)c3)nc3ccccc23)C1 (stereo not drawn) | 9.3
28 | Cc1cccc(N2CCN(C(=O)c3ccc4c(c3)c(C)c(C)n4C)CC2C)c1 (stereo not drawn) | 2.66
29 | CN1CCN(c2ccc(C(N)=O)cc2[N+](=O)[O-])CC1 | 12.9
30 | COCCN1Cc2cccc(C(=O)NCCCN3CCCC3=O)c2C1=O | 7.69
31 | O=C(NCc1ccc(Cl)cc1)c1ccc(NC(=O)C2CCCO2)cc1 (stereo not drawn) | 9.39
32 | Cc1ccc(N2C(SCC(=O)O)=NC(=Nc3cccc(C)c3)C23CCCC3)cc1.I | 5.61
33 | CC(C)NS(=O)(=O)c1ccc(OCC(=O)N2CCN(C)CC2)cc1 | 13.2
34 | CN(CC(=O)Nc1ccc(Cl)c(C(F)(F)F)c1)Cc1cc(=O)n2ccsc2n1 | -37.7
35 | CNC(=S)Nc1ccc([N+](=O)[O-])cc1 | 11.8
36 | O=C(Nc1ccccc1[N+](=O)[O-])C1COc2ccccc2O1 (stereo not drawn) | 10.7
37 | Cc1ccc(C(=O)Nc2ccc3c(c2)nc(CCNC(=O)c2ccco2)n3C)cc1 | 9.07
38 | O=C(O)CC1COc2ccccc2N1C(=O)c1ccccc1Cl (stereo not drawn) | 18.5
39 | O=C(Nc1ccc2c(c1)OCCO2)C1c2ccccc2C(=O)N2CCc3ccccc3C12 (stereo not drawn) | 7
40 | CCOC(=O)Cn1cc(C(=O)c2ccccc2)c2ccccc21 | 17.1
41 | COc1cc(OC)cc(-c2c(C#Cc3ccsc3)c3cc(-c4ccc5c(c4)OCCO5)ccc3n2C)c1 | 14.8
42 | COC(=O)C1=C(C)N(CCc2ccccc2)C(=O)/C1=C\c1ccco1 | 0.773

Row | SMILES | hERG current change (%, negative = inhibition) at 1uM [%]
43 | CC(=O)c1sc(NCCOc2ccc(C)cc2)nc1C | 10.9
44 | COc1ccc(NC(=O)C(c2ccc(C)cc2)N(C)C(=O)c2ccc(=O)[nH]c2)cc1 (stereo not drawn) | 7.18
45 | COc1ccc(N2CCN(C(=O)c3ccccc3F)CC2)c([N+](=O)[O-])c1 | -3.31
46 | CN1/C(=C\C(=O)CSc2ncn[nH]2)C(C)(C)c2ccccc21 | 1.41
47 | COC(=O)Cc1c(C)c2ccc(O)c(CNCc3ccc(OC)c(OC)c3)c2oc1=O.Cl | 7.91
48 | CCn1c(Cc2ccc(OC)cc2)nnc1SCC(=O)Nc1nc2ccccc2s1 | 10.4
49 | Cc1ccc(S(=O)(=O)N2CCC(C(=O)N[C@@H](C)C(=O)NCC3CCCO3)CC2)cc1 (stereo partly drawn) | 3.15
50 | COc1ccc(/C=C/C(O)=C2/C(=O)NC3(C)CC2c2ccccc2O3)c(OC)c1OC (stereo not drawn) | 11
51 | C=CCN1C(=O)/C(=C/c2cc(C)n(-c3ccccn3)c2C)C(=O)NC1=S | -2.61
52 | O=C(c1cc(S(=O)(=O)N2CCCCC2)ccc1Cl)N1CCOCC1 | 9.56
53 | Cc1ccc2oc(=O)n(CCOc3ccccc3)c2c1 | 9.91
54 | COc1ccc(NC2=C(Cl)C(=O)N(CCc3ccccc3)C2=O)c(OC)c1 | 12.7
55 | COc1ccc(-c2cc(-c3nnc(COC(=O)CC4CCCC4)o3)c3ccccc3n2)cc1OC | 16.6
56 | C=CCN(C(=O)CNC(=O)c1ccco1)C(C(=O)NC1CCCCC1)c1ccccc1 (stereo not drawn) | 10.2
57 | C/C(=N\NC(=O)c1nnn(-c2nonc2N)c1-c1ccc(Cl)c(Cl)c1)c1ccncc1 | 13
58 | COc1cc2ncnc(NCc3ccc4c(c3)OCO4)c2cc1OC | 4.43
59 | CC1C(=O)N2CCCc3cc(S(=O)(=O)N4CCN(c5ccc(F)cc5)CC4)cc1c32 (stereo not drawn) | 9.22
60 | COc1cccc2cc(C(=O)N3CCN(C/C=C/c4ccccc4)CC3)c(=O)oc12 | 4.24
61 | N#C/C(=C\c1ccc(N2CCCCC2)o1)C(=O)Nc1cccc(Br)c1 | 8.7
62 | CC(=O)CCc1ccc(OCC(O)CNC2CCCc3ccccc32)cc1.O=C(O)C(=O)O (stereo not drawn) | -0.128
63 | CC(C)c1[nH]nc2c1C(c1cccc(OC(=O)N3CCOCC3)c1)C(C#N)=C(N)O2 (stereo not drawn) | 10.2

Row | SMILES | hERG current change (%, negative = inhibition) at 1uM [%]
64 | O=C(CC1CCCCC1)Nc1nc2ccccc2s1 | -3.29
65 | Cc1ccc(NC(=O)c2cc(S(=O)(=O)N3CCOCC3)ccc2F)c(C)c1 | 5.8
66 | COc1ccc(OCC(=O)Nc2ccc3c(c2)nc(CCNC(C)=O)n3C)cc1 | 12.4
67 | O=C(Cn1nnc(-c2ccc(F)cc2)n1)OCC(=O)c1ccccc1 | 9.68
68 | Cc1ccc(CCNS(=O)(=O)c2ccc3c(c2)NC(=O)C(C)C(=O)N3)cc1 (stereo not drawn) | 17.9
69 | O=C(c1ccccc1)c1ccc2c(c1)OCCOCCOCCO2 | 8.88
70 | CCN1CCN(CC(=O)Nc2ccc(C)c(Br)c2)CC1.Cl | -13.5
71 | CN1CCN(Cc2nc3ccccc3n2C)CC1 | 2.85
72 | COc1cc2c(cc1NC(=O)/C=C/c1cc(OC)c(OC)c(OC)c1)oc1ccccc12 | 4.79
73 | CN(Cc1ccccc1)S(=O)(=O)c1ccc(N2CCOCC2)nc1 | 14.1
74 | CCOc1ccc(-n2c(O)c(C=NCCCn3ccnc3)c(=O)[nH]c2=O)cc1 | 13.4
75 | Cc1ccc(NC(=O)[C@H](C)NC(=O)C2CCN(C(=O)[C@H](CC(C)C)NC(=O)OC(C)(C)C)CC2)cc1 | 2.26
76 | COC(=O)CN1C(=O)CC(C)(C)Sc2ccccc21 | 11.6
77 | CCOC(=O)C1=C(COC(=O)C2CC(=O)N(c3ccccc3F)C2)NC(=O)NC1C (stereo not drawn) | 4.7
78 | Cc1ccc(N2CC(C(=O)OCc3nnc(-c4ccccc4)o3)CC2=O)cc1 (stereo not drawn) | 32
79 | O=C(NC1CCCCC1)C(c1ccc2ncccc2c1)N(Cc1ccc(F)cc1)C(=O)c1ccc2c(c1)OCCO2 (stereo not drawn) | 8.72
80 | Cc1cc(C)nc(NC(=O)c2ccc([N+](=O)[O-])o2)n1 | 0.245
81 | O=C(COc1ccc(Br)cc1)N/N=C1/SCC(=O)N1Cc1ccccc1 | -4.03
82 | COc1cc(/C=C2\C(=O)ON=C2c2ccc(Cl)cc2)ccc1O | 12.6
83 | CCCn1c2ccccc2c2cnn(CC(=O)NC(C)CC)c(=O)c21 (stereo not drawn) | 11.7
84 | Cc1ccc(-c2noc(CNc3ccccc3)n2)cc1 | 6.42
